Experimental data from paper PMC9984901.
These are yes or no findings as the source states them, for the method shown. Binding seen in cells or lysates may run through a third protein. Some results given as binding are weak or reduced against the parent protein; the word gives no strength.

Amino acid sequences for entries named in this document (tags omitted). A change or cut given only in a name is not applied to a line headed by its entry. Chains listed by the source or under a name are the forms on record and can include a tag or linker. Residues count along the entry.
UniProt P04198: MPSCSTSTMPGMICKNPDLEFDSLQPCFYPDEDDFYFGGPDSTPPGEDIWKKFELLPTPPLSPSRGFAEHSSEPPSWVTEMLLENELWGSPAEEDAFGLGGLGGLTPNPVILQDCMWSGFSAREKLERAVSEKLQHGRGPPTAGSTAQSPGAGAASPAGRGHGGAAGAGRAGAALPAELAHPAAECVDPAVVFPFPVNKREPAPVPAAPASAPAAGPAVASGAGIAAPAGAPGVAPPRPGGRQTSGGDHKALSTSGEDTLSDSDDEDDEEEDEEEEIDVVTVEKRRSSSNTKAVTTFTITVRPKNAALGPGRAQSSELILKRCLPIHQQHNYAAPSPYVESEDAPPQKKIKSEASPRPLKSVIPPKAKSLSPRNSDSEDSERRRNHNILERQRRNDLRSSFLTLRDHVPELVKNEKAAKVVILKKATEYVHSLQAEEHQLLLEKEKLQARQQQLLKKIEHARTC
Δ382–464 deletion mutant N-Myc with a 3xFLAG tag: residues 1-381 of P04198
Δ346–464 deletion mutant N-Myc with a 3xFLAG tag: residues 1-345 of P04198
Δ281–464 deletion mutant N-Myc with a 3xFLAG tag: residues 1-280 of P04198
Δ1–123 deletion mutant N-Myc with a 3xFLAG tag: residues 124-464 of P04198
UniProt Q09472: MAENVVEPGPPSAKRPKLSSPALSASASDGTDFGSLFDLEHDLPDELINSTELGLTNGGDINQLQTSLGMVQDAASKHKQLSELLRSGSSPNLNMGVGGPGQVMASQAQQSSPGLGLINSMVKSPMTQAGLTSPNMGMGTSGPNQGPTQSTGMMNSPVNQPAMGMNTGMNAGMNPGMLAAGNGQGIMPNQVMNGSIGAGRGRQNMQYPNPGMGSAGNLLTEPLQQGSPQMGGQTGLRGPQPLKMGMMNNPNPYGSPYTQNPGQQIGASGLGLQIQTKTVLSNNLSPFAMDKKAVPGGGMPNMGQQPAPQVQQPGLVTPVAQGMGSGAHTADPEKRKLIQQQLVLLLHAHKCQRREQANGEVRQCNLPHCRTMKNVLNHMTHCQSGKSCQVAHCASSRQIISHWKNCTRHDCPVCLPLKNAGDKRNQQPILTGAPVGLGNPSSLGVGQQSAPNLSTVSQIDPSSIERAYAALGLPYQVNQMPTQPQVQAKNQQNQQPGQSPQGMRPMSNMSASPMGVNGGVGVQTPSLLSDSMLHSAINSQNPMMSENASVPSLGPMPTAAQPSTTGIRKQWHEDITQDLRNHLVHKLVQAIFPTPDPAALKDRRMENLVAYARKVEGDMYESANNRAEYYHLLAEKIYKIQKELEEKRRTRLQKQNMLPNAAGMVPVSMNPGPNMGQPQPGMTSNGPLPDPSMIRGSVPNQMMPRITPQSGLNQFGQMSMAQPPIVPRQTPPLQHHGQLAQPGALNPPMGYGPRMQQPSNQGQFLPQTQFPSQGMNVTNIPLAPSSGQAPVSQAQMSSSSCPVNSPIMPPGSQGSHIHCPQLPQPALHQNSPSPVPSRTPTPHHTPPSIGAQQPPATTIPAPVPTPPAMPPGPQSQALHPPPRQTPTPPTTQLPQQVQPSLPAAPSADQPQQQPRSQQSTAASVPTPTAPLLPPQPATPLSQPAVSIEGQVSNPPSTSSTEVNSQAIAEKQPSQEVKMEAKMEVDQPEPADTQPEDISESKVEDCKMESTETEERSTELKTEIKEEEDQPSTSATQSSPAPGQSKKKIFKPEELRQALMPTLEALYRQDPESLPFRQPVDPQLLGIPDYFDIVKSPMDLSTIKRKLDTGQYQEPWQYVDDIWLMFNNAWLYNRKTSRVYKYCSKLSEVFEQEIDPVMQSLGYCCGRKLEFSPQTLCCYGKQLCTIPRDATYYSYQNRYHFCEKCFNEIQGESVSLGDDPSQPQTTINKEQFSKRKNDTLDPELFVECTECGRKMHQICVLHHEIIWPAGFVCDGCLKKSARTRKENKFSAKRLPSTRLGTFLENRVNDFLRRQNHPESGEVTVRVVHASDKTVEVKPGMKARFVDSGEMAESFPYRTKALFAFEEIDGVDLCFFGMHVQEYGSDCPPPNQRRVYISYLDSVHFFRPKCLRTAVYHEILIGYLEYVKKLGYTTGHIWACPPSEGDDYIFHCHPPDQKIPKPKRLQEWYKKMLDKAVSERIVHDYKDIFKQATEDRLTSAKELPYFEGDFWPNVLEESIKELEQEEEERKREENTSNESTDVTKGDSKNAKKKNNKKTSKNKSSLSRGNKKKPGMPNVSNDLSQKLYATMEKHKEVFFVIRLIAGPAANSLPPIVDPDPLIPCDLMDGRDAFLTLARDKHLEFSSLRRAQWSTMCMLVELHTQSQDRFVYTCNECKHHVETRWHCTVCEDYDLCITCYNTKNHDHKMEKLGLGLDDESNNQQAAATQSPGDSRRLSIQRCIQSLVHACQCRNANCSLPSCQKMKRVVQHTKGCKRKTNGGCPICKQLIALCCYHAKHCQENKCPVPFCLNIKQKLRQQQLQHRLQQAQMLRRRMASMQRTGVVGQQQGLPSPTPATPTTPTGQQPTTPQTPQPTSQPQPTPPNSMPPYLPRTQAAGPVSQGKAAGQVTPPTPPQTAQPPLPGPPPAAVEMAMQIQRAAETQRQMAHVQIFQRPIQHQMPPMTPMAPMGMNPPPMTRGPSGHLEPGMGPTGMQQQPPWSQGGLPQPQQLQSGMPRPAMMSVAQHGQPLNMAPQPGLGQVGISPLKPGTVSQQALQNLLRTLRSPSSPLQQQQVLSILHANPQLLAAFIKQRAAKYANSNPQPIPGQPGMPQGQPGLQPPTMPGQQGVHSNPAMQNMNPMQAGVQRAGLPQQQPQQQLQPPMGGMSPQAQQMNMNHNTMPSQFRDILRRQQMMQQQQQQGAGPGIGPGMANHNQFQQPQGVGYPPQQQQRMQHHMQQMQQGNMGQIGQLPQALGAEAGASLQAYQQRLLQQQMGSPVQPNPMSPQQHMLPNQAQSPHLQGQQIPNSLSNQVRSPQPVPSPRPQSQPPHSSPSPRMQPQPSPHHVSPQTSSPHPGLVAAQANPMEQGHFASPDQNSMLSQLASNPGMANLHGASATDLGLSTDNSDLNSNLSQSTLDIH

Key:
[1] = target: N-Myc proto-oncogene protein (human (endogenous in SK-N-BE(2))) (UniProt P04198); test: co-IP; endogenous co-IP from SK-N-BE(2) lysate with N-Myc antibody or p300 antibody, normal IgG as negative control; Western blot with N-Myc and p300 antibodies
[2] = target: Δ346–464 deletion mutant N-Myc with a 3xFLAG tag (UniProt P04198); test: co-IP; lysates of 293 cells (293T in the methods) about 72 h after transfection with full-length or deletion mutant FLAG-tagged N-Myc or empty vector; FLAG magnetic beads; Western blot for endogenous p300 and FLAG
[3] = target: Δ1–123 deletion mutant N-Myc with a 3xFLAG tag (UniProt P04198); test: as above
[4] = target: Δ382–464 deletion mutant N-Myc with a 3xFLAG tag (UniProt P04198); test: as above
[5] = target: Δ281–464 deletion mutant N-Myc with a 3xFLAG tag (UniProt P04198); test: as above
[6] = target: 3xFLAG-N-Myc (full-length N-Myc with a 3xFLAG tag) (UniProt P04198); test: as above

## histone acetyltransferase p300 (from UniProt Q09472 1-2414)
[1]
  binding: binds
[2]
  binding: binds
[3]
  binding: no binding
[4]
  binding: binds
[5]
  binding: binds
[6]
  binding: binds
